From the supplement of paper PMC3334620
Over roughly 33,000 sequences, “E-score (-0.5 to 0.5)” has its median near -0.011; the highest 2% begin near 0.28. The list shows a part of the results.

molecular target: T1, Gcr1 (UniProt P07261); experiment: PBM E-score (8-mer binding enrichment) (E-score (-0.5 to 0.5)); higher = stronger / more preferred TF binding; most listed sequences are background and not binding sites; settings: protein concentration: 100 nM; construct: GST-full length
T1 sequence: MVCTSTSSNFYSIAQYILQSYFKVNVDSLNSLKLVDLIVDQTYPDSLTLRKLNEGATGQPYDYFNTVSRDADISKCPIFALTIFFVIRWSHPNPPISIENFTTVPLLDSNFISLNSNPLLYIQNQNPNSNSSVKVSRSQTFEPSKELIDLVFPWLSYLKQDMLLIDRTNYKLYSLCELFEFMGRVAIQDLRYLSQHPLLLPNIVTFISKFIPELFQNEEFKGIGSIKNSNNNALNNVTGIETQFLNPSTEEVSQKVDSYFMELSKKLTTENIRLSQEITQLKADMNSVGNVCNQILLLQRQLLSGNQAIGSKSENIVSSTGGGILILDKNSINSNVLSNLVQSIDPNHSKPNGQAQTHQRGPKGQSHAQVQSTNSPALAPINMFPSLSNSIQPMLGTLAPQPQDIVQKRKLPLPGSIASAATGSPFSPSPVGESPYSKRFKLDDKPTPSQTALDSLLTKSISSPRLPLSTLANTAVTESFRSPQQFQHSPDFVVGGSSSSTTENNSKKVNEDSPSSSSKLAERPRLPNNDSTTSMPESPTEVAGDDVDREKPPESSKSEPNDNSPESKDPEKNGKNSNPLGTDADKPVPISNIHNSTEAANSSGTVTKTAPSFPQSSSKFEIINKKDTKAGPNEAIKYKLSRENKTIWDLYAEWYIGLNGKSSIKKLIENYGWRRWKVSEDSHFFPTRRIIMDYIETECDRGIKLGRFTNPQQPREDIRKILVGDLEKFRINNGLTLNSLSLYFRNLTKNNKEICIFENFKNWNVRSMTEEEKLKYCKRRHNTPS
Procedure, shortened: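 Masliner-normalised scans of fluorescent anti-GST signal were the basis for scoring. That signal came from GST-tagged yeast transcription factors applied at about 100-200 nM to double-stranded universal all-10-mer Agilent arrays on fresh or once-stripped slides. Each ungapped eight-base word, pooled with its reverse complement, received an E-score from the Universal PBM Analysis Suite.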

Sequence | PBM E-score
ACCGCGTC | 0.0198
TATCGTAA | -0.0159
ACCGCCGC | 0.0774
AAAGGTTA | -0.141
ATTAGCAA | 0.108
AATACGTA | 0.247
ATTATCAC | 0.18
TATCTTAA | 0.0235
TAGGTCCA | 0.109
CCAGATGA | 0.141
ACGGGAGC | 0.0784
CACAGCAG | 0.163
ACACGTGC | -0.111
CAACGGTA | -0.0142
ATAAGGAC | 0.0366
AATCGATT | 0.147
CAGCCACA | 0.0295
CCCAAGCC | 0.0119
CTGGCACC | 0.392
CTGCGTAC | -0.0978
AGTCTCAC | -0.106
CATGAACG | -0.0993
GGGGGCGA | -0.0875
ACATCATC | 0.0184
CTGGGTGC | 0.244

Sequence | PBM E-score
GGCCAATA | -0.0435
AAACTATC | -0.19
ACTGTGAT | -0.201
CTCTATAA | 0.0698
CATATAGG | 0.0935
TACTGACA | 0.0589
ATAAGCAC | 0.0508
ACCGGCGA | 0.021
AAACCAGC | -0.00341
GAAGTGGA | 0.219
GGGAGGAA | -0.0689
TAGCGGCA | 0.105
AGCTTACA | -0.16
CTCGTAGA | -0.0969
CGATTCCG | -0.0838
ATTGGCCA | -0.00804
TGGTGCAA | 0.138
GTCCCTTA | -0.219
CCCATGAG | -0.0288
ATGAATGA | -0.0327
GGAAAGCC | 0.0416
CGGTCTTC | 0.0421
GTGATCGA | -0.243
GACCTCCA | 0.11
TCCGGCGA | -0.0118

Sequence | PBM E-score
AACGCGGC | -0.0306
CCGGACAA | -0.0303
GGAGTATA | -0.121
ACTAAACG | 0.0167
CTGACTAC | -0.0833
GTACGCCA | -0.167
GAAGATGA | -0.0956
ACCGTACA | -0.142
AACGACGA | 0.0525
GAGAGCTA | -0.178
ACGGCGCT | -0.00448
ACTTAAGG | 0.0916
ATAGGTGG | 0.105
ACTCAACG | -0.176
ATTGACCC | -0.0689
AAACAAAC | 0.0439
CTCCCAAA | 0.0739
AAGATCTG | -0.101
CGCATCAA | -0.0181
AAAATGGT | 0.175
ATATTTCA | 0.0272
AACAAGGG | -0.215
AGCACCTC | -0.0162
CCTAAATA | 0.129
ACCCCAAA | 0.175

Sequence | PBM E-score
CAAATCAG | 0.0595
GGGGCCCA | 0.199
TACGACGA | -0.0661
GGCTCATA | -0.155
CATTCCGA | 0.0382
CTGATAGC | -0.204
ATTGAAAG | -0.00665
CCGAAATA | 0.247
CCTGTTTC | 0.186
AGCAGTCA | 0.0392
AGGCCCAA | -0.0311
TTATAGAA | 0.027
CGCCACAG | 0.0993
AGGTTGAA | -0.00247
CACGTCCC | -0.0357
AAGAGCTG | -0.0201
AAATACCG | 0.118
ATGTCCTA | -0.0152
ACATCCCT | -0.0835
TGTAGGAA | 0.0643
TGCCAACA | 0.0456
AGTTAGTG | -0.155
AAATAGAT | 0.125
TATCGGGA | 0.18
CCGTTACA | -0.142

Sequence | PBM E-score
CCTGCAGC | 0.153
GCCGCATA | -0.082
TATCCATA | 0.0196
ACTTTTGG | 0.0757
AAACCGTG | 0.051
ACAACCGT | -0.229
ACGTCCGC | -0.107
ACTCGAAA | 0.0966
TACATCTA | 0.0674
GAGAGACC | -0.0739
CGTAACAA | -0.0297
ACGAGTCG | -0.0432
CGAAGGAG | 0.0769
ATAAACTA | 0.128
TTGACCAA | 0.0136
ACAACCTA | -0.024
ACATGGCC | -0.138
ACATAGCT | -0.233
ATTCTGTC | -0.124
CGCTTTAA | -0.0365
AATGTCAC | 0.00273
GTCTCTGA | -0.0671
AAGCCCCT | 0.0409
ATATTGAC | -0.171
GTAATACA | 0.0624

Sequence | PBM E-score
ACCATTAG | -0.0532
TCACTTAA | -0.0203
GCACATGA | -0.102
CCCGGTCA | -0.0625
GGAATACC | 0.161
AGAAAACC | -0.0435
GCTATTAA | 0.0943
GTTGTCAA | -0.187
ACTTGACA | -0.2
CTCTTTAC | 0.161
GACGCGGC | 0.253
CAAGCGGC | 0.165
ACTACGGC | 0.0786
CGACGTTA | 0.0113
AATGTTTC | 0.165
ACACAACA | -0.0843
ACAGGTAA | 0.0538
AATGGATG | 0.134
AGACTTAC | -0.342
ATGCTCCG | -0.254
ACCACCCA | 0.0425
AATTTGGT | 0.253
AAGAGTGC | -0.0487
ACAAGTAT | 0.125
AGTGGTAT | 0.247

Sequence | PBM E-score
AATCGCCA | -0.0127
TCCCGAAA | 0.252
TCAAGGAA | 0.0158
GTTCTGGA | -0.00188
ATTATTTG | 0.107
ACCTTTCG | -0.093
CTCCAGCC | -0.183
CTCGTCCC | -0.355
CGATTGGC | -0.146
ATCACCCG | -0.192
GATATAAC | -0.0751
GTGGGGGA | 0.0931
CTTCCCAA | 0.232
ATCCTTAA | 0.115
GGAGTCTA | 0.0222
TCTCCTCA | -0.0534
AAGTAAGC | -0.217
CCGAGGTC | -0.104
TACGAGTA | -0.0401
ATATCTCA | -0.0917
GAGGCTGA | -0.0331
GGCGAGTA | -0.113
GTGACTAA | -0.0152
GCCTAAGA | -0.106
GAGTCCGA | 0.158

Sequence | PBM E-score
ACCCACGA | 0.0759
GTGGCCAA | -0.0719
GGCCTTTA | -0.0866
GATGGGGA | 0.0681
GAAGTAGC | 0.257
AACCACAT | 0.0672
CGCTAGGA | -0.171
CCTTAAGG | -0.142
CGCATACG | 0.00348
GGGTTGAA | -0.147
ATCAGTCC | -0.24
ACCTGCGT | -0.0862
ACAAAATC | 0.101
ACTTGATG | -0.0626
CGAGTAGA | -0.0365
ACAAAAGT | 0.00185
TAAAGGCA | -0.0171
AAGGGACG | -0.058
CAAAGCCG | -0.0561
GGGAATCA | 0.0161
AACTAATA | 0.187
CCAGGTAA | -0.0543
ACGTATCA | -0.14
CCGTGTCC | -0.0187
CAGCAGAC | -0.0985

Sequence | PBM E-score
CGGAGAAA | -0.106
AACCTGCC | -0.202
CCAGGTAC | 0.052
GCACATAA | -0.0767
CCCCTTCG | 0.045
CAGCGCCG | 0.205
CAAAGTCC | -0.011
GCCTAACC | -0.0444
TATGTGAA | 0.0626
GTTGGCAA | 0.0265
AGATCAAG | 0.0772
AAGGTTCG | -0.134
TAGAGTAA | -0.164
TCCGTTAA | -0.00183
CTTATGTC | 0.00662
TAGGTTAA | -0.0257
CAACCGCC | -0.0499
GGGACAAA | -0.0353
CTCCAGAC | 0.122
